The source of these data is publication PMC12136788.

To fix the notation:
T1: UNK ZnF1-3 (human, UniProt Q9C0B0 31-174)
T1 sequence: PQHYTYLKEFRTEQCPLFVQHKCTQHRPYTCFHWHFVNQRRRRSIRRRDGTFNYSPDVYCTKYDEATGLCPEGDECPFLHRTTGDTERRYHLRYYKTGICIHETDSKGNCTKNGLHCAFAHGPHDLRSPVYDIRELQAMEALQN

B1: 36856437_36858578_1275_CDS_ENSMUSG00000022837_ENSMUST00000023535|mouse|control|control (ssRNA)
RNA: GGGAGUUCUACAGUCCGACGAUCUUUCUCUUCCAUUUCCCUAUUGUACUUCUCCACUUGACCUGGAUGAAUUAUUUCAAGCAUGUUCAAGCGUGACUCUCGUGAAAGCCUCAUUGCUCUCUGUCUUUGAAGUUGCAAUUUUAACAACAGAGGAUUGAGCAUCA
B2: chr4:123027775:123027776:-_ENSMUSG00000028649_ENSMUST00000154824|mus_hu|FALSE|FALSE (ssRNA)
RNA: GGGAGUUCUACAGUCCGACGAUCUUAUCUUGCUGAGAUAGCAAGUCAAGUUUAUAAAGAAGAUGCAUUUAGGAAUAAUCCUAAAAGAUAAAGCAGGUUUACAACCCUGCACCGCGCAGAAACCCUAUUAAUAGGCUUUUUUUUCAACAGAGGAUUGAGCAUCA
B3: chr4:65274301:65274302:+_ENSMUSG00000051675_ENSMUST00000050850|mus_hu|FALSE|FALSE (ssRNA)
RNA: GGGAGUUCUACAGUCCGACGAUCGUGCAGAAGCUUGGGACGCAGCUGCUCUUCUGUGAAGGACUCCAUGCAGAUGGGGCAUUCUAGCACUUCCCGGAGGGCAUCCAGGUUCAGGUGAGAAGCUGCUGCUGCAGCCAUUGCUCUCAACAGAGGAUUGAGCAUCA
B4: chr1:65217810:65217811:-_ENSMUSG00000025950_ENSMUST00000097709|mus_hu|FALSE|FALSE (ssRNA)
RNA: GGGAGUUCUACAGUCCGACGAUCAGCUUCUGCAGCAUCCUUGGUGACUUGGUCGUUGGUGGCAUCACGAUUCUCUAUGCCUAAAUCAUAGCUAUGUAGAUCCAAUUCCACGUAGGGAAAAAUGAGUUUCUCUUUAAUCAAUUCCAACAGAGGAUUGAGCAUCA
B5: chr4:115894766:115894767:+_ENSMUSG00000028698_ENSMUST00000030464|mus_hu|mus_mus_mus_hu_True|98_108 (ssRNA)
RNA: GGGAGUUCUACAGUCCGACGAUCUUCACACGGAAAUGUACUUGGGGGUUUUCCAACGGCCAGUACCAGUCCGGCCAAACUACCCGAACAGGGUCCUCCCCCUCUCUCCUACAGAACACAACAAAAUGCCCCCGAACUUUCAAGCAACAGAGGAUUGAGCAUCA
B6: chr3:196311160:196311161:+_ENSG00000174013_ENST00000440469|hu_hu|FALSE|FALSE (ssRNA)
RNA: GGGAGUUCUACAGUCCGACGAUCCUGUCUGUCAUCACAAGAAAGCCACUGUCAUCCGUCCAAAGGUUUUCCAAGGUAAACCAAAGUCACUUCUGUGUUGCCAUAUACAGCAGAAACUGCUGGGUAUAAGCAGACCUUUGGAAGCAACAGAGGAUUGAGCAUCA
B7: 55281810_55284326_1425_CDS_ENSMUSG00000027797_ENSMUST00000054237|mouse|control|control (ssRNA)
RNA: GGGAGUUCUACAGUCCGACGAUCUCCUAUUGUUCUCCCGACUUUGUAUCUCUCUGUUAUUGUGGCAGGAAUCUGGAAGCCUUCCUCAGACUCUUCCCUCCUCCAUCCCCUCUGCAAGCUGUGCCUUCUCCCAAGCUCAUCACCCAACAGAGGAUUGAGCAUCA
B8: chr15:63762776:63762777:-_ENSMUSG00000022378_ENSMUST00000164532|mus_hu|FALSE|FALSE (ssRNA)
RNA: GGGAGUUCUACAGUCCGACGAUCGUUAAUUUAAACAUUUUCAUUUUGGUUGCACAUGAAAAAGGCGGCAGUAGAAAAUAAAGUCAUUGAGGGUUUUUAAAUAGCAGAAUAGGCAGUUUUGCCAUGCAGGAGAAGCAAUAUUAACAACAGAGGAUUGAGCAUCA
B9: 65057774_65057894_2814_CDS_ENSMUSG00000029920_ENSMUST00000031984|mouse|control|control (ssRNA)
RNA: GGGAGUUCUACAGUCCGACGAUCAUCCAUGUCUAACUGGUAACUAUUAAUGUGUUGAUACUGUUUACAAAGUACAUGUAGUUCAAAAUCUGUCAUAACUUCCAUGUCUUCAAAGAUCAGGUCAGGGUUGGCCUCACAGUGCGUCAACAGAGGAUUGAGCAUCA
B10: chr9:53370893:53370894:+_ENSMUSG00000033054_ENSMUST00000035850|mus_mus|FALSE|FALSE (ssRNA)
RNA: GGGAGUUCUACAGUCCGACGAUCCGCUGCAUCAUUAGAGAGCUGUUUAUCUGAAGGGGCUGGUUCUUCAAGAUGAAUUUCUAUUUUCUCAGUCACAUUUACACCCAAACUUUCACCAAUCCCAGGAGGUGGUUUGCUCUGCAGCAACAGAGGAUUGAGCAUCA
B11: chrX:67713009:67713010:-_ENSMUSG00000073139_ENSMUST00000101506|mus_mus|FALSE|FALSE (ssRNA)
RNA: GGGAGUUCUACAGUCCGACGAUCUACAGGAGCAAAAAAUAGUGGAUUUAACCACAUUUUUAAGAGACCAAACAAAAAAUGCUACACUGCUUCCCCUUUCUUCUGAAACAGAACAGGCUCACUGGAGGCCUGUGCCAAGGGUAGCAACAGAGGAUUGAGCAUCA
B12: chr3:179287964:179287965:+_ENSG00000136518_ENST00000429709|hu_hu|hu_hu_hu_mus_True|48_48 (ssRNA)
RNA: GGGAGUUCUACAGUCCGACGAUCCUUGAGUGGUGAGAUGGCCUCCAUGUUCUCCCUGGGCACGCGGAGGGCAUUGGUGUCUAUGUAGUAGGUGGGACCGCCCUGCUUGCCUUUGUCACCAUCAAUCUCCAUCAUUGUACUUCCCAACAGAGGAUUGAGCAUCA
B13: chr22:32879901:32879902:+_ENSG00000100225_ENST00000397426|hu_mus|hu_hu_hu_mus_False|78_108 (ssRNA)
RNA: GGGAGUUCUACAGUCCGACGAUCCUCUGCCAUAUGCAUGGCAUCCUGAAUUGACUCAGCUUCAAAAUUUUGACUAGGCCCUUCCAUACUGUCAUCAGUCCAGGCAUCAAAUGGGGUGGCCUGUCCUUGGGAUGAAUCAGUCCCCAACAGAGGAUUGAGCAUCA
B14: chr9:40579289:40579290:+_ENSMUSG00000032024_ENSMUST00000034522|mus_hu|FALSE|FALSE (ssRNA)
RNA: GGGAGUUCUACAGUCCGACGAUCAUUCUUAACCUUACAGGUGUACCGGCCCUCAUCACUGGGCUUCAGAGGUUCAAUCUGCAAGGAGGCAUCUCCUGCCAGGAAAUUGGAAGCAAAGGCCACUCGGCCCUUCUGUUCCUCAGUCAACAGAGGAUUGAGCAUCA

The other results are listed elsewhere or left out.

The experiment deals with T1, UNK ZnF1-3. Nature of the experiment: nsRBNS (natural sequence RNA bind-n-seq); RBNS binding buffer (assumed for nsRBNS): 25 mM Tris pH 7.5, 150 mM KCl, 3 mM MgCl2, 0.01% Triton X-100, 500 ug/ml BSA, 20 U/ml SUPERase-In, 4 C; UNK is unkempt and MSI1 is Musashi-1; names of the RNAs are library labels; protein concentration not given here; high values mean tight binding.
In the case of B1, the binding signal was determined as 0.434 enrichment R.

On to B2, for which the binding signal is 0.401 enrichment R.

The molecule B3 showed a binding signal of 0.933 enrichment R.

As for B4, the binding signal turned out to be 1.58 enrichment R.

In turn, B5 yielded a binding signal of 1.19 enrichment R.

The molecule B6 came in with a binding signal of 0.769 enrichment R.

In turn, B7 returned a binding signal of 0.599 enrichment R.

Turning to B8, the binding signal was found to be 2.65 enrichment R.

B9 had a binding signal of 0.986 enrichment R.

On to B10, for which the binding signal turned out to be 1.03 enrichment R.

Turning to B11, the binding signal was 1.25 enrichment R.

Molecule B12 showed a binding signal of 0.626 enrichment R.

In turn, B13 registered a binding signal of 0.816 enrichment R.

Take B14: the binding signal turned out to be 0.999 enrichment R.
